# Assay results taken from the supplement of paper PMC3334620.
# The full ranking holds about 33,000 sequences; the median of “E-score (-0.5 to 0.5)” is about -0.056, and the highest 2% start at about 0.38. Some of the results follow.
# Target: Stb4 (UniProt P50104)
# Experiment: PBM E-score (8-mer binding enrichment) (E-score (-0.5 to 0.5)); higher = stronger / more preferred TF binding; most listed sequences are background and not binding sites
# Conditions: protein concentration: 200 nM; construct: GST-DNA-binding domain
# Description: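 Universal 'all 10-mer' protein binding microarrays (Agilent AMADID 015681) probed with GST-tagged S. cerevisiae TFs (full-length or DBD) made by in vitro transcription/translation (PURExpress), about 100-200 nM. Bound TF was detected with fluorescent anti-GST. Each ungapped 8-mer (which stands for itself and its reverse complement) is scored by the PBM enrichment score (E-score), a modified Wilcoxon-Mann-Whitney statistic from -0.5 to +0.5, computed with the Universal PBM Analysis Suite. Scale: above 0.35 generally sequence-specific binding.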
row,Sequence,PBM E-score
1,GTGACGGA,0.214
2,ACTAGCGG,-0.0195
3,GGTGAAGA,-0.14
4,ATCGGACG,0.289
5,CAAGGAAA,-0.0655
6,TAGAGTCA,-0.256
7,ATGCTCCC,-0.0169
8,GTTTTCCA,-0.00305
9,CCCACTCG,0.0329
10,ATTAGTTC,0.0663
11,ACCTTTCC,0.256
12,CGAGGGGC,-0.00304
13,CGCAGGAC,-0.13
14,CATATATG,-0.187
15,TAGGCTGA,-0.179
16,AAAAGTTG,-0.0801
17,TAGGGCCA,-0.245
18,ACCGTCAG,-0.0659
19,CAAACTCA,-0.087
20,CGCCAATC,0.0166
21,AACAGTTG,-0.247
22,ATTAGCGC,-0.0934

row,Sequence,PBM E-score
1,ACCCGCCT,0.0418
2,AAGGACTC,0.127
3,AAACGTAG,-0.228
4,ACCTTTTG,-0.0261
5,CGGAAACG,0.384
6,AGTGAGGG,-0.138
7,CTCCAGTC,-0.0791
8,ACGGCATA,0.0191
9,ATCCACTC,0.0789
10,TCGAGCCA,-0.204
11,CTTCGTAC,-0.0477
12,ACCTAACT,0.0483
13,GATGTGGA,0.0581
14,GAATCCGA,0.4
15,AGGTGAAC,-0.149
16,CTACAAAC,-0.154
17,GACCCCCA,-0.0615
18,CCTCAACG,-0.201
19,ATCATTCC,0.184
20,CTAGCCAG,-0.23
21,AAGCACAA,-0.165
22,CAGCATTA,-0.149

row,Sequence,PBM E-score
1,AATCTCGC,-0.0297
2,AACTTTTG,-0.145
3,GGCTATAC,0.103
4,GCAATTAA,-0.0341
5,AAGGAGAG,-0.344
6,CAAACATA,-0.267
7,ACGTGATC,-0.0864
8,ATGTTCGG,0.392
9,AGACCAAA,-0.0554
10,CTATACTA,-0.0232
11,CGCTGGGC,-0.133
12,ACAAATAA,-0.0319
13,CCACTCGC,-0.0766
14,CAGTCGGG,0.275
15,TACGCACA,-0.252
16,GGACCTGA,-0.0475
17,AAAGCTAA,-0.0735
18,ATGCAGGG,-0.0938
19,AGGTCCGC,0.0848
20,CGATCGCA,0.0279
21,ATATCCGG,0.424
22,CCTGGTTA,-0.222

row,Sequence,PBM E-score
1,ACAAATTG,-0.0196
2,TCTCAGCA,-0.233
3,GTACGCGA,-0.273
4,GCTATCAC,-0.18
5,TGGCCACA,-0.18
6,ATCCGTTA,0.319
7,AGTAATCA,-0.0147
8,AGGATGCA,-0.103
9,GAACGCAC,-0.0275
10,ACGTCCTA,0.0106
11,CAAAGACA,-0.079
12,TATTCGGA,0.426
13,CGACCGAC,0.121
14,TGGGCGAA,-0.204
15,GAACCGGA,0.312
16,ATATGACA,-0.0926
17,ATGTTGGG,-0.109
18,CATGGCGA,-0.0876
19,CTACCACA,-0.106
20,CCGCCTGC,0.0101
21,CCACTCAA,-0.312
22,GGGGGAGA,0.0539

row,Sequence,PBM E-score
1,GCTAGGCA,-0.00335
2,ACACCTTC,0.0194
3,ATTCGACA,-0.0865
4,AGCCGCGG,0.315
5,AGGACGGC,-0.144
6,TACAGCAA,-0.0927
7,AACCCTTA,-0.253
8,CGGGTTCC,0.325
9,AACTGAAC,-0.0228
10,AGGAAGGA,-0.282
11,CATAAAAC,-0.0872
12,CCAGCTGA,-0.191
13,CGTCTGGC,-0.00711
14,CTACGCAG,-0.144
15,GCTGTAAA,-0.263
16,ATCGCAGC,-0.00257
17,CCGGCAGC,0.245
18,AGGCTCCG,0.26
19,ATACACAA,-0.146
20,AAACGGGG,0.00631
21,GTCGCCAA,-0.147
22,GAATTTAA,-0.0336
